Experimental data: publication PMC4336329 (PLoS ONE, 2015)
In all, about 310,000 compounds went through this assay and about 2,200 (0.71%) showed an effect of 50% or more. The effect is printed as a negative number. Some of the results follow. Where a SMILES comes first, the peptide text is derived from it.

target: human ether-à-go-go-related gene (hERG) potassium channel (human, UniProt Q12809); assay: primary screen, population patch clamp on CHO cells stably expressing hERG
Sequence (Q12809 whole entry, looked up): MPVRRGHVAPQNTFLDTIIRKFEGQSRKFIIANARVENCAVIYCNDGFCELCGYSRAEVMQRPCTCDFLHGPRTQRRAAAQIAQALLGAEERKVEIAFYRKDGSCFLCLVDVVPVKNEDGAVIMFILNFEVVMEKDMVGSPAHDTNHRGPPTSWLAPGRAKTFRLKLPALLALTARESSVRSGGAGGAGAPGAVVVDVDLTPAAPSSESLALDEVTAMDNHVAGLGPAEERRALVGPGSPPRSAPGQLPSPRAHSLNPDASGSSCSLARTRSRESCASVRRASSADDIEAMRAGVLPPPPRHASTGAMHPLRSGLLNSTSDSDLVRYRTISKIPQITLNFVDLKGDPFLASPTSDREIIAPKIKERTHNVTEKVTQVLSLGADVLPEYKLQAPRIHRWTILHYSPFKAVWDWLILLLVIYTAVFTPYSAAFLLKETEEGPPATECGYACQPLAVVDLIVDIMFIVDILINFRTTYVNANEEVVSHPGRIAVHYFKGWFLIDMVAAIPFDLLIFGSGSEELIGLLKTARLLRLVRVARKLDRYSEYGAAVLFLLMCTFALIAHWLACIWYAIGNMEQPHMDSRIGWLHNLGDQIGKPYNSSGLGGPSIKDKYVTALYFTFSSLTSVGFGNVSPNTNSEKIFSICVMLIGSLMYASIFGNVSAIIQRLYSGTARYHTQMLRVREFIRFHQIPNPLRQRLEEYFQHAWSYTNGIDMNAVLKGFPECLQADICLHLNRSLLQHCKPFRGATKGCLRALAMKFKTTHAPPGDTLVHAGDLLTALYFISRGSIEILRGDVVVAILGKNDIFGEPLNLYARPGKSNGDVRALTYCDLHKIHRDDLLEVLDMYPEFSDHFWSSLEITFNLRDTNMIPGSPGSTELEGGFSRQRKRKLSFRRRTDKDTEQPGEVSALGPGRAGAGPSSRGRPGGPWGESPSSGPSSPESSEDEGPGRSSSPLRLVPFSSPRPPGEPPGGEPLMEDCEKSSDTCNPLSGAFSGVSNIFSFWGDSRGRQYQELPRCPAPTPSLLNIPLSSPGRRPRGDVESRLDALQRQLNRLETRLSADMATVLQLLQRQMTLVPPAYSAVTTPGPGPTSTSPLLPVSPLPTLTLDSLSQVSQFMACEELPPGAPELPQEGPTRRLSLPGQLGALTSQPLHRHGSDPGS

Compound	hERG current change (%, negative = inhibition) at 1uM
O=C(C1CCN(CC2CC=CCC2)CC1)N(CCc1ccccc1)Cc1ccccc1 (stereo not drawn)	-47%
CC(C)C[C@H](NC(=O)[C@@H]1CCCN1C(=O)[C@@H](N)Cc1ccc(O)cc1)C(=O)NCC(N)=O (H-YPLG-NH2)	20.7%
CCNC(=O)c1ccccc1SCc1ccccc1	-2.71%
CC(c1ccccc1)N1C(=O)c2ccccc2C1(O)Cc1ccccc1 (stereo not drawn)	13.6%
Cc1ccc(N=C2CCCN2Cc2ccccc2)c(C#N)c1	-1.54%
Cc1c(C(=O)Nc2cccc(N(C)S(C)(=O)=O)c2)cccc1[N+](=O)[O-]	7.37%
Cc1ccc(N=Nc2c(O)ccc3n[nH]nc23)cc1	10.6%
COC(=O)c1ccccc1NC(=O)c1sc(=S)n(C)c1N	12.2%
CCOc1ccccc1C(=O)NCC(=O)NCCCc1ccccc1	1.47%
CCOC(=O)c1ccc(NC(=O)c2cccc(C)c2[N+](=O)[O-])cc1	14.4%
O=C(NN1CC(=O)N(c2cc(Cl)cc(Cl)c2)CC1=O)c1cccs1	10.6%
Cc1c(C(=O)N2CCCC2)c(S(=O)(=O)Nc2ccccc2Cl)c(C)n1C	12.2%
CN1C(=O)C(C(=O)NC(C)(C)C)C2c3ccccc3OC13CCCCC23 (stereo not drawn)	-4.43%
COCc1cc(=O)[nH]c(/N=C(\N)Nc2ccccc2C)n1	5.07%
Cc1[nH]c2c(C)cccc2c(=O)c1Br	9.54%
Cc1ccc(C(=O)CSc2nnnn2-c2ccccc2)o1	9.14%
CC(C)Cn1c(=O)oc2ccccc21	13.5%
N#C/C(=C\c1c(Cl)cccc1Cl)c1nc2ccccc2o1	2.68%
CCOC(=O)c1c(O)c2ccccc2n(CC)c1=O	9.28%
COc1cc(C)ccc1OCc1cc(C(=O)N2CCN(C)C[C@@H]2c2ccccc2)no1	3.18%
COc1cc(CC2(CCc3ccncc3)C(=O)N(C)C(=O)N(C)C2=O)cc(OC)c1OC	10.2%
O=C(COc1ccccc1)Nc1nnc(COc2ccccc2)s1	-2.25%
CCN(Cc1ccccc1)C(=O)CCNS(=O)(=O)c1cc(Br)cnc1N	8.95%

Compound	hERG current change (%, negative = inhibition) at 1uM
COc1ccc(/C=C(/NC(=O)c2ccco2)C(=O)NCc2ccco2)cc1OC	11.2%
O=C(CSc1nc2ccccc2c(=O)n1Cc1ccc(C(=O)NC2CC2)cc1)NCc1ccco1	8.79%
COc1cccc(-c2cc(C(=O)Nc3ccc(N(C)C(C)=O)cc3)c3cc(Br)ccc3n2)c1	10.7%
COc1ccc(F)cc1S(=O)(=O)Nc1ccc2c(c1)OCO2	14.2%
N#C/C(=C/c1ccc(O)cc1)C(=O)NCc1ccc(Cl)cc1	20%
O=C(COC(=O)CCc1nc2ccccc2c(=O)[nH]1)NC(=O)NC1CCCC1	15.8%
Cc1oc(-c2ccc(Cl)cc2)nc1CN1CCCC(C(=O)NCCCN2CCOCC2)C1 (stereo not drawn)	9.75%
Cc1ccc(C(=O)NC2CC3CCC(C2)N3C)cc1 (stereo not drawn)	10.8%
O=C(NCCN1C(=O)S/C(=C\c2ccccc2F)C1=O)C1CCN(S(=O)(=O)c2cccs2)CC1	-9.14%
CCC(=O)Nc1cccc(-c2nnc(SCC(=O)c3ccccc3)n2C)c1	17.5%
Cn1ccnc1SCC(=O)NC1CCCC1	23.6%
CCc1ccc(-c2nc(CCl)cs2)cc1.Cl	18.8%
COc1ccc(C(=O)C2CCCN(Cc3ccc4nonc4c3)C2)c(C)c1 (stereo not drawn)	0.937%
COc1ccc(/C(C)=N\NC(=O)CSc2nnc(C)s2)cc1	2.72%
O=C(CSCc1ccccc1)Nc1ccccc1	15.4%
CN1c2ccccc2C(=O)NC1c1ccc([N+](=O)[O-])s1 (stereo not drawn)	4.13%
CC(=O)c1ccc(NC(=O)CSc2nnc(NC(=O)CN3CCOCC3)s2)cc1	12.4%
COc1ccc(NC(=O)CN2C(=O)C(C)Oc3ccccc32)cc1OC (stereo not drawn)	10.2%
COc1cc(Cn2c(N)c(C#N)c3nc4ccccc4nc32)cc(OC)c1	12.5%
O=C(NC(=S)NCCc1ccccn1)c1ccccc1	8.05%
COc1ccc(C2C=C(c3ccc(Cl)cc3)Nc3nc(NC(C)=O)nn32)cc1 (stereo not drawn)	-7.29%
COc1ccc(C(=O)C2CCCN(C(=O)c3noc4c3CCCC4)C2)c(C)c1 (stereo not drawn)	-3.26%
